Laboratory results reported in US20240400644A1 (ACROIMMUNE GUANGZHOU BIOTECH, published 2024).

What was measured:
[1] = biological target: T1, biotinylated human Siglec10 (His- and Avi-tagged) (human, UniProt Q96LC7 17-546, limits assumed, biotinylated (Avi tag)); test: BLI
T1 construct: Bought, HEK293 cell derived; immobilised on streptavidin biosensors; also called AcroBiosystems SIO-H82E3; not shown: His tag and Avi tag
T1 sequence (looked up): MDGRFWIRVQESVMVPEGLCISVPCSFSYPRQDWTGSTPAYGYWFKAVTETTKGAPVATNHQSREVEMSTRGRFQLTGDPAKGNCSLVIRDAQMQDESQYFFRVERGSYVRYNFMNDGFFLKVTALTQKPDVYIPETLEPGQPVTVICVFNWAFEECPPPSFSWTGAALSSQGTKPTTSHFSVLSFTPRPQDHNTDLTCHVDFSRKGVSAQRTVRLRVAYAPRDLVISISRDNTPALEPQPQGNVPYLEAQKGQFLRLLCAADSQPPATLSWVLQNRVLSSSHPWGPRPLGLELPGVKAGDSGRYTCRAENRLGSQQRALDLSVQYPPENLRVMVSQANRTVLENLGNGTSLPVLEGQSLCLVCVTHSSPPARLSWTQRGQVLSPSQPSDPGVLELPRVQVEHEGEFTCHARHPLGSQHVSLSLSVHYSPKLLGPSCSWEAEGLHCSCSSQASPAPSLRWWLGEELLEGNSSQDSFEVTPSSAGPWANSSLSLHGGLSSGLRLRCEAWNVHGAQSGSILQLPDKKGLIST
Method: A Fortebio based biolayer interferometry assay (BLI) was used to further analyze the binding kinetics of AI-07 fusion protein to human Siglec10. For this propose, streptavidin-coated biosensor tubes (Sartoris Octet SA biosensors, Cat. 18-0009) were incubated with biotinylated human Siglec10 (AcroBiosystems, HEK293 cell derived, His- and Avi-tagged, SIO-H82E3) at 2 μg/mL in binding buffer (1×PBS with 1 mM MgCl2, 3 mM CaCl2) at room temperature for 10 mins. After balanced with binding buffer, analytes of different concentrations of AI-071 or human IgG-Fc control protein were loaded into individual biosensor tube and the binding kinetic curves (association and dis-association) were recorded in Fortebio-BLITZ instrument.

[2] = biological target: T2, human Siglec-4A Fc fusion protein (human, UniProt P20916 20-516, limits assumed); test: ELISA: Siglec-Fc coated at 0.2 µg/mL, biotin-labeled AI-071 titrated 2-fold, avidin-HRP
T2 construct: Recombinant IgG-Fc fusion, coated at 0.2 µg/mL; not shown: IgG-Fc
T2 sequence (looked up): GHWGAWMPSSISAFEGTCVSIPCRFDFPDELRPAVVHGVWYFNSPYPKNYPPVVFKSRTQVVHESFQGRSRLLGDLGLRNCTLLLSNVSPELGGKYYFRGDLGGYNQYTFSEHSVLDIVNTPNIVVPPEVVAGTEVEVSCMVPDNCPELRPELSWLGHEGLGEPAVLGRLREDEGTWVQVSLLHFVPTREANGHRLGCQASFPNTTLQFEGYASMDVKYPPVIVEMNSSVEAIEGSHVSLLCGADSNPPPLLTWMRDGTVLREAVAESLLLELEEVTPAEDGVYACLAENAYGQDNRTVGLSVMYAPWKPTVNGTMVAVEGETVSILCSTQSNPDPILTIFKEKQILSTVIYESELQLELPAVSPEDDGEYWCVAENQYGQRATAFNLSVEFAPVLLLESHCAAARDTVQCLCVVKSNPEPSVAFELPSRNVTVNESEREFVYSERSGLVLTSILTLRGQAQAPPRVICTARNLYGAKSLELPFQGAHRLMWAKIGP
Method: Briefly, 2-fold dilutions of biotin-labeled AI-071 fusion protein were added into 96-well plated coated with indicated Siglec-Fc fusion proteins (all coating at 0.2 μg/mL), the amount of bound AI-071 protein was then detected by adding Avidin-HRP and OPD.
To evaluate the spectrum of Siglecs that binds to AI-071, recombinant IgG-Fc fusion protein containing one of the human siglec family members (Siglec-1, 2, 3, 4a, 5, 6, 7, 8, 9, 11, 14 and 15) were coated in 96-well plates and their binding to biotin-labeled AI-071 protein was detected in ELISA. The representative ELISA results are shown in FIG. 4B (Siglec-1, 2, 3, 4a, 5 and 6) and FIG. 4C (Siglec-7, 8, 9, 11, 14 and 15).

B1: AI-071 fusion protein (Fc fusion)
chain: STSNSGLAPNPTSTSNSGLAPNPTSTSNSGLAPNPTSTSNSGLAPNPTSTSNSGLAPNPT[human IgG1 Fc skipped]
notes: Disulfide-linked homodimer; Used biotin-labeled in the Siglec panel ELISA; also called AI-071 Fc-fusion protein; AI-71
[1]
  fold higher Siglec10 binding affinity than control Fc protein: > 10 fold
[2]
  binding result: binds
